Consider 22 compounds from ChEMBL document CHEMBL4888484, “Replenishing the malaria drug discovery pipeline: Screening and hit evaluation of the MMV Hit Generation Library 1 (HGL1) against asexual blood stage Plasmodium falciparum ,using a nano luciferase reporter read-out” (2022).

SMILES strings stand for the structures. Hit rate of the full screen: of about 150,000 compounds, about 540 (0.36%) showed an effect of 50% or more. The list shows a part of the results.

The test system of the assay is Plasmodium falciparum. The assay can be described thus: Primary screen in NF54 nanoGlo assay, in single point, at 2uM, 72h; a lower Z score goes with more inhibition. In kind it is functional, Erythrocyte. Particulars: timepoint 72 hour.
Consider `CCN1CC(=O)N[C@H]2CN(C(=O)c3cccn4cc(C)nc34)CC[C@@H]2OCc2cccc(c2)Oc2cc(OC(C)C)cc(c2)C1=O`, for which the “% Inhibition” value is -1% and the Z score amounted to 0.17.

Turning to `CC(CC1OCC(C[N+]2(Cc3ccccc3)CCCCC2)O1)CC(C)(C)C` (centres undefined), the “% Inhibition” value is 60% and the Z score was -5.21.

With `CCc1ccc2nc(C)cc(C(=O)N3CCc4cc(C(N)=O)n(C)c4C3)c2c1`, the “% Inhibition” value is recorded as -11% and the Z score is on record as 1.92.

With `Cc1ccsc1-c1nnc(CC(=O)NCc2ccccc2)o1`, the “% Inhibition” value is recorded as -17% and the Z score came out at 1.66.

In the case of `O=S(=O)(c1cccc(F)c1)N1C[C@H]2CNC[C@@H](C1)O2`, the “% Inhibition” value is recorded as -8% and the Z score is 1.07.

Turning to `Cc1ccc2c(n1)OCCN2C(=O)CCn1cccn1`, the “% Inhibition” value is -14% and the Z score is listed as 1.64.

Turning to `Cn1cc(C(=O)N2CCOC(C)(C)C2)c(=O)[nH]c1=O`, the “% Inhibition” value is -1% and the Z score worked out at 0.16.

In the case of `CC1(C)CC(=O)c2cn(-c3ccccc3)c(=O)c(C(=O)N3CCCCC3)c2C1`, the “% Inhibition” value is recorded as 11% and the Z score is given as -1.26.

In the case of `COC[C@H]1CCN(Cc2ccc3c(c2)nnn3C)C1`, the “% Inhibition” value is reported as -3% and the Z score turned out to be 0.62.

`CC(C)n1cc2c(C(F)F)cc(=O)n(CCC(=O)Nc3ncc(Cl)cc3Cl)c2n1`: the “% Inhibition” value was 31% and the Z score is listed as -3.56.

`COc1ccc2c(c1)Oc1cc(C)ccc1N=C2N1CCCN(S(=O)(=O)c2cccc(Cl)c2)CC1`: the “% Inhibition” value was determined as 1% and the Z score is reported as -0.07.

`Nc1nnnn1CC(=O)N1CCC[C@H]1c1nccs1`: the “% Inhibition” value is on record as 5% and the Z score is given as -0.48.

Take `COc1ccccc1Cn1c(CN2C(=O)c3ccccc3C2=O)nc2cccnc21`: the “% Inhibition” value is reported as -10% and the Z score worked out at 1.94.

For the compound `CCC1(O)CN(C(=O)C(C)(C)C(F)F)C1`, the “% Inhibition” value is -17% and the Z score is given as 1.98.

As to `CN(C)C(=O)CN1CC[C@H](NC(=O)c2c[nH]nc2-c2ccccc2)[C@@H](O)C1`, the “% Inhibition” value is reported as -1% and the Z score turned out to be 0.16.

Consider `Cc1nc2cc(OCc3nc(C(=O)N(C)C[C@H](C)O)co3)ccc2s1`, for which the “% Inhibition” value was -6% and the Z score was found to be 1.15.

For the compound `COc1cc(CN2CC3(C)CC2CC(C)(C)C3)cc(OC)c1` (centres undefined), the “% Inhibition” value is given as -6% and the Z score was found to be 1.14.

For the compound `C[C@@H](CC(F)(F)F)N1CCCNC(=O)C1`, the “% Inhibition” value is -1% and the Z score is on record as 0.11.

As for `O=C(Cc1cccc(C(F)(F)F)n1)N1CC2(C1)CS(=O)(=O)C2`, the “% Inhibition” value was -8% and the Z score is listed as 1.13.

As for `CC(C)CCOc1ccc(NC(=O)NC2CCC(C)S(=O)(=O)C2)nn1` (centres undefined), the “% Inhibition” value is listed as -8% and the Z score is 1.34.

With `Cc1cc(NC(=O)[C@H](C)N(C)Cc2nccn2C(F)F)on1`, the “% Inhibition” value was -8% and the Z score came out at 1.53.

With `CCCc1cnc(C)nc1N1C[C@@H]2c3ccc(OC)cc3OC[C@]2(CO)C1`, the “% Inhibition” value is given as -13% and the Z score turned out to be 1.79.
